Assay results published in patent publication US20230002488A1 (SYSTIMMUNE, published 2023).

Tests used:
human 4-1BB = molecular target: T1, human 4-1BB (human, UniProt Q07011, in part); assay: BLI (Octet), GNC on AHC sensor, 100 nM antigen as analyte, 1:1 fit
T1 construct: Bought antigen; construct not described

human PD-L1 = molecular target: T2, human PD-L1 (human); assay: BLI (Octet), GNC on AHC sensor; strong binding, dissociation too slow to quantify KD
T2 construct: Bought antigen; construct not described

B1: SI-49P3 (antibody, human IgG1, kappa)
heavy: EIVMTQSPSTLSASVGDRVIITCQASESISSWLAWYQQKPGKAPKLLIYEASKLASGVPSRFSGSGSGAEFTLTISSLQPDDFATYYCQGYFYFISRTYVNSFGCGTKLTVLGGGGSGGGGSGGGGSGGGGSEVQLVESGGGLVQPGGSLRLSCTASGFTISTNAMSWVRQAPGKCLEWVGVITGRDITYYASWAKGRFTISRDTSKNTVYLQMNSLRAEDTAVYYCARDGGSSAITSNNIWGQGTLVTVSTGGGGSGGGGS[sequence of about 450 residues with a human IgG1 Fc not given]GGGGSGGGGSEVQLLESGGGLVQPGGSLRLSCAASGFSFSSGYDMCWVRQAPGKCLEWIACIAAGSAGITYDANWAKGRFTISRDNSKNTLYLQMNSLRAEDTAVYYCARSAFSFDYAMDLWGQGTLVTVSSGGGGSGGGGSGGGGSGGGGSDIQMTQSPSTLSASVGDRVTITCQASQSISSHLNWYQQKPGKAPKLLIYKASTLASGVPSRFSGSGSGTEFTLTISSLQPDDFATYYCQQGYSWGNVDNVFGCGTKVEIKGGGGSGGGGSGRSLVESGGGLVQPGGSLRLSCTASGFTISSYHMQWVRQAPGKCLEYIGTISSGGNVYYASSARGRFTISRPSSKNTVDLQMNSLRAEDTAVYYCARDSGYSDPMWGQGTLVTVSSGGGGSGGGGSGGGGSGGGGSDVVMTQSPSSVSASVGDRVTITCQASQNIRTYLSWYQQKPGKAPKLLIYAAANLASGVPSRFSGSGSGTDFTLTISDLEPGDAATYYCQSTYLGTDYVGGAFGCGTKVEIK
light: [sequence of about 200 residues not given]GGGGSGGGGSFLNSLFNQEVQIPLTESYCGPCPKNWICYKNNCYQFFDESKNWYESQASCMSQNASLLKVYSKEDQDLLKLVKSYHWMGLVHIPTNGSWQWEDGSILSPNLLTIIEMQKGDCALYASSFKGYIENCSTPNTYICMQRTVGGGGSGGGGSGGGGSGGGGSFLNSLFNQEVQIPLTESYCGPCPKNWICYKNNCYQFFDESKNWYESQASCMSQNASLLKVYSKEDQDLLKLVKSYHWMGLVHIPTNGSWQWEDGSILSPNLLTIIEMQKGDCALYASSFKGYIENCSTPNTYICMQRTV
Kd (human 4-1BB): 2.75 nM | binding result (human PD-L1): binds
